# Assay results: article PMC4336329 (PLoS ONE, 2015)
# Screen size: about 310,000 compounds; about 14,000 (4.5%) showed an effect of 50% or more. Effects have a minus sign here. Some of the results follow.
# Target: human ether-à-go-go-related gene (hERG) potassium channel (human, UniProt Q12809)
# Test: primary screen, population patch clamp on CHO cells stably expressing hERG
# 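Note: peak tail current of the secondary pulse compared with the same well before compound.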
# Chain of human ether-à-go-go-related gene (hERG) potassium channel (Q12809 whole entry, looked up): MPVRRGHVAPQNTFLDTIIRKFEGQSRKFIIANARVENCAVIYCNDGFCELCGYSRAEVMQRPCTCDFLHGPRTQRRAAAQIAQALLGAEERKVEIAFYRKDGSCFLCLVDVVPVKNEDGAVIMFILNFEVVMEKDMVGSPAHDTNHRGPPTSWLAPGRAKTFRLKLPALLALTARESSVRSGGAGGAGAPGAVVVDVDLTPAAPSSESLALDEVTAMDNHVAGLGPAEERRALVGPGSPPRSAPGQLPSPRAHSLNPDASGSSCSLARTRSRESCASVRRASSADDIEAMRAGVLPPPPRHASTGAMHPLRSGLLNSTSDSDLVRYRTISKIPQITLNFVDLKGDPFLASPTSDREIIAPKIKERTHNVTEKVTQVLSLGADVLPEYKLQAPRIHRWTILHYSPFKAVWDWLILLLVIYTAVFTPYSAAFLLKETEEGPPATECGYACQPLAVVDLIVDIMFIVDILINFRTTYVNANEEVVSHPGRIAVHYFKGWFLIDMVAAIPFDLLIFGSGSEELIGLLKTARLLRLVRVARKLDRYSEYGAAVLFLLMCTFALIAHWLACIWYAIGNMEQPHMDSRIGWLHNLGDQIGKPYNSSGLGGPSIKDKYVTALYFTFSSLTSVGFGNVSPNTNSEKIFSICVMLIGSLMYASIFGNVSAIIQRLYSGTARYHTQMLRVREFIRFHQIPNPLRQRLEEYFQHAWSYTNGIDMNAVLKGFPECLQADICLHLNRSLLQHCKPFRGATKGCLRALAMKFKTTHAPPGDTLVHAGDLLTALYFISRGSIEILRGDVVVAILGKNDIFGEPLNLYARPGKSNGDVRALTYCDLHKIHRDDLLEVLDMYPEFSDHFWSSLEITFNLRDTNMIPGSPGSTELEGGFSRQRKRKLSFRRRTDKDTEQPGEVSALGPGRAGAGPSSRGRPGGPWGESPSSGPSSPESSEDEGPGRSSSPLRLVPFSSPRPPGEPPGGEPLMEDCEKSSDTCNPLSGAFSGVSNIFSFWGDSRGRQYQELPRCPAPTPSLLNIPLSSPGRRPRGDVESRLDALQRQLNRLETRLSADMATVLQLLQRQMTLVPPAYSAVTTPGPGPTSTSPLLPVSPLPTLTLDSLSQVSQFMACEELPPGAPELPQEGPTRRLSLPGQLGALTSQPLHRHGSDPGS
row,SMILES,"hERG current change (%, negative = inhibition) at 10uM [%]"
1,C=CCNCCOc1ccccc1-c1ccccc1.O=C(O)C(=O)O,-12.6
2,O=C(COC(=O)c1ccc(Br)o1)NC1CCCc2ccccc21 (centres unmarked),4.1
3,CCC1(CC)Cc2ccccc2C(=C(C#N)C#N)N1,6.52
4,O=C1CNC(=S)N1CCOc1ccccc1,11.3
5,O=C(O)c1ccc(S(=O)(=O)N(Cc2cccs2)CC2CCCO2)cc1 (centres unmarked),-16.4
6,CCN1CCN(CCCOc2ccc(Cl)cc2Br)CC1.O=C(O)C(=O)O,-69
7,Cc1ccc(S(=O)(=O)N2CCN(CC(=O)N/N=C\c3ccncc3)CC2)cc1,-66.8
8,CC(C)(CC(=O)O)CC(=O)N1CCN(c2nc3cc(Cl)ccc3s2)CC1,5.2
9,COC(=O)C1=C(C)N(Cc2ccco2)C(=O)/C1=C\c1ccc([N+](=O)[O-])cc1,-22.7
10,N/C(=N\OC(=O)CSc1ccccc1)c1ccccn1,6.31
11,CC(C)C(=O)Nc1cccc(C(=O)NCc2ccc(S(N)(=O)=O)cc2)c1,3.17
12,COc1ccccc1N1CCN(C2CCN(C(=O)c3cccc(F)c3)CC2)CC1.O=C(O)C(=O)O,-33.1
13,O=[N+]([O-])c1ccc2nccn2c1,-1.14
14,CCC(C)N1C(=O)NC(=O)C2(Cc3c(ccc4ccccc34)N(C)C2)C1=O (centres unmarked),2.18
15,CCc1nn(CC(=O)N2CCN(CC)CC2)c(=O)c2cccn12,9.19
16,CCOC(=O)c1c(C)sc2c1N(C(C)=O)c1cc(Cl)ccc1S2,-8.01
17,COc1cc(C(=O)NNC(=O)COc2ccc(Cl)cc2)ccc1OCC(=O)N1CCOCC1,-2.19
18,COc1cc(CN2CCNC(=O)C2CC(=O)N2CCc3ccccc3C2)cc(OC)c1 (centres unmarked),-2.39
19,CCC(=O)OCc1c(C(F)(F)F)nn(C)c1Sc1ccc(F)cc1,-8.79
20,Cc1ccccc1NC(=O)c1ccccc1NC(=O)CCC(=O)O,10.4
21,O=c1c(CN2CCN(c3cccc(Cl)c3)CC2)coc2c(Cl)cc(Cl)cc12,12.7
22,Clc1cc(-c2ccc(/C=N/n3cnnc3)o2)ccc1Br,-2.25

row,SMILES,"hERG current change (%, negative = inhibition) at 10uM [%]"
1,O=c1[nH]c(SCc2ccccc2)nc2c1sc1ccccc12,6.18
2,CCOC(=O)C1=C(C)NC2=C(C(=O)CC(C)(C)C2)C1c1ccc(O)c(OCC)c1 (centres unmarked),12.3
3,CCN(CC)S(=O)(=O)c1ccc(OC)c(NC(=O)C(C)Oc2ccc3c(C)cc(=O)oc3c2)c1 (centres unmarked),-26.3
4,COc1ccc(CCNC(=O)C(=O)NCC2OCCCN2S(=O)(=O)c2cc(C)ccc2C)cc1 (centres unmarked),7.16
5,COC(=O)c1ccc(C(=O)OC)c(NC(=S)N2CCCCC2)c1,-24.9
6,CN1C(=O)/C(=C/c2cn(CC(=O)N3CCCCC3)c3ccccc23)c2ccccc21,10.8
7,COC(=O)c1ccc(NC(=S)NCCc2cccc(C)c2)cc1,-2.3
8,O=C(O)CCc1ccc(-c2ccccc2)n1-c1ccc(C(=O)O)cc1,11.4
9,CCOc1ccc(C(C)C)cc1S(=O)(=O)n1ccnc1C,-8.28
10,CSc1nnc(C)c(/C=C/NOCc2cccc(F)c2)n1,4.03
11,Cc1cc2ncn(S(=O)(=O)N(C)C)c2cc1C,16.1
12,CCc1ccc(-c2cn(C3CCCCC3)c(=S)[nH]2)cc1,3.42
13,Cc1cc(/C([O-])=C(/C(=S)Nc2ccccc2)[n+]2ccccc2)c(C)n1-c1ccccc1,6.17
14,CCOC(=O)CSc1nnc(NC(=O)c2ccco2)s1,11.8
15,COC(=O)c1c(NC(=O)c2ccccc2)sc2c1CC(C)(C)OC2,-16.1
16,C[C@@H](NC(=O)OC(C)(C)C)c1nnc(S(=O)(=O)Cc2ccccc2)o1,8.29
17,CCOC(=O)c1cnc2c(C)c(Cl)ccc2c1Nc1ccc(S(=O)(=O)Nc2ncccn2)cc1,10.7
18,CCCCCOc1ccc(NC(=O)C(=O)NCCCn2ccnc2)cc1,2
19,COc1ccc(N(CC(=O)Nc2ccccc2Cl)S(=O)(=O)c2ccc(C)cc2)cc1OC,4.36
20,Nc1cc(C(F)(F)F)ccc1N1CCOCC1,13.8
21,Cc1ccc(NC(=O)c2cc(S(=O)(=O)N3CCC4(CC3)OCCO4)ccc2F)cc1,-2.9
22,CN(C)C(=O)COn1c(SCC(=O)N(C)C)nc2ccccc2c1=O,-4.61
